The values that follow come from US20140323413.

The target of this data set is DQ elastin.

B1: porcine pancreas elastase (protein)
chain: VVGGTEAQRNSWPSQISLQYRSGSSWAHTCGGTLIRQNWVMTAAHCVDRELTFRVVVGEHNLNQNDGTEQYVGVQKIVVHPYWNTDDVAAGYDIALLRLAQSVTLNSYVQLGVLPRAGTILANNSPCYITGWGLTRTNGQLAQTLQQAYLPTVDYAICSSSSYWGSTVKNSMVCAGGDGVRSGCQGDSGGPLHCLVNGQYAVHGVTSFVSRLGCNVTRKPTVFTRVSAYISWINNVIASN
As to B1, the “specific activity, in vitro elastin degradation assay” value is 135±5.5 u/mg, n=4 and the “stated: degrades (fluorescence released from DQ elastin)” value was “bar 'Elastase' rises from about 150 relative fluorescence units at 0 hr to about 4100 at 2 hr”.
